Two molecules from the supplement of paper PMC8728848 can be followed below.

Test in all cases: glycan array binding signal (z-score within array); higher = stronger binding
Common to all, as to settings: glycan notation: IUPAC condensed, linker removed

Experiment [1] deals with Glc(a1-2)Glc. In a few lines:
(§1)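 Glycan array data came from 3228 arrays in the Consortium for Functional Glycomics database, and only arrays with an available protein sequence were kept. Glycan names were put into IUPAC-condensed notation, and columns mapping to the same glycan were averaged. The binding signal is a within-array Z-score, averaged across arrays of one protein sequence run at different concentrations or buffers and across linkers. A negative Z-score can be read as non-binding.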

Experiment [2] concerns the target Glc(a1-2)Glc(a1-2)Glc. The gist of the method:
as §1

Experiment [3] has as its target Glc(a1-2)Glc(a1-2)Glc(a1-2)Glc. In a few lines:
as §1

The target of experiment [4] is Glc(a1-2)Glc(a1-2)Glc(a1-2)Glc(a1-2)Glc. The gist of the method:
as §1

In experiment [5] the target is Glc(a1-2)Glc(a1-2)Glc(a1-2)Glc(a1-2)Glc(a1-2)Glc. The gist of the method: as §1
Experiment [6] concerns the target Glc(a1-2)Glc(a1-2)Glc(a1-2)Glc(a1-2)Glc(a1-2)Glc(a1-2)Glc. The gist of the method: as §1
In experiment [7] the target is Glc(a1-2)Glc(a1-2)Glc(a1-2)Glc(a1-2)Glc(a1-2)Glc(a1-2)Glc(a1-2)Glc. In a few lines: as §1
For experiment [8], the target named is Glc(a1-2)Glc(a1-2)Glc(a1-2)Glc(a1-2)Glc(a1-2)Glc(a1-2)Glc(a1-2)Glc(a1-2)Glc. The gist of the method: as §1
In experiment [9] the target is Glc(b1-2)Glc. The gist of the method: as §1
The target in experiment [10] is Glc(b1-2)Glc(b1-2)Glc. The gist of the method:
as §1

Experiment [11] has as its target Glc(b1-2)Glc(b1-2)Glc(b1-2)Glc. In a few lines: as §1
In experiment [12] the target is Glc(b1-2)Glc(b1-2)Glc(b1-2)Glc(b1-2)Glc. In a few lines:
as §1

The target of experiment [13] is Glc(b1-2)Glc(b1-2)Glc(b1-2)Glc(b1-2)Glc(b1-2)Glc. The gist of the method:
as §1

In experiment [14] the target is Glc(b1-2)Glc(b1-2)Glc(b1-2)Glc(b1-2)Glc(b1-2)Glc(b1-2)Glc. The gist of the method:
as §1

Experiment [15] addresses Glc(b1-2)Glc(b1-2)Glc(b1-2)Glc(b1-2)Glc(b1-2)Glc(b1-2)Glc(b1-2)Glc. In a few lines:
as §1

The target in experiment [16] is Glc(b1-2)Glc(b1-2)Glc(b1-2)Glc(b1-2)Glc(b1-2)Glc(b1-2)Glc(b1-2)Glc(b1-2)Glc. In a few lines: as §1
Experiment [17] addresses Glc(b1-2)Glc(b1-2)Glc(b1-2)Glc(b1-2)Glc(b1-2)Glc(b1-2)Glc(b1-2)Glc(b1-2)Glc(b1-2)Glc. The gist of the method: as §1
In experiment [18] the target is Glc(b1-2)Glc(b1-2)Glc(b1-2)Glc(b1-2)Glc(b1-2)Glc(b1-2)Glc(b1-2)Glc(b1-2)Glc(b1-2)Glc(b1-2)Glc. The gist of the method: as §1
Experiment [19] concerns the target Glc(b1-2)Glc(b1-2)Glc(b1-2)Glc(b1-2)Glc(b1-2)Glc(b1-2)Glc(b1-2)Glc(b1-2)Glc(b1-2)Glc(b1-2)Glc(b1-2)Glc. In a few lines:
as §1

For experiment [20], the target named is Glc(b1-3)Glc(b1-3)Glc(b1-3)Glc(b1-3)Glc(b1-3)Glc(b1-3)Glc(b1-3)Glc(b1-3)Glc(b1-3)Glc(b1-3)Glc(b1-3)Glc(b1-3)Glc. In a few lines: as §1

The list shows a part of the results.

B1: DC-SIGNR (Homo sapiens), Q9H2X3 (protein)
chain: QVSKVPSSLSQEQSEQDAIYQNLTQLKAAVGELSEKSKLQEIYQELTQLKAAVGELPEKSKLQEIYQELTRLKAAVGELPEKSKLQEIYQELTRLKAAVGELPEKSKLQEIYQELTRLKAAVGELPEKSKLQEIYQELTELKAAVGELPEKSKLQEIYQELTQLKAAVGELPDQSKQQQIYQELTDLKTAFERLCRHCPKDWTFFQGNCYFMSNSQRNWHDSVTACQEVRAQLVVIKTAEEQNFLQLQTSRSNRFSWMGLSDLNQEGTWQWVDGSPLSPSFQRYWNSGEPNNSGNEDCAEFSGSGWNDNRCDVDNYWICKKPAACFRDE
For B1, the “glycan array binding signal (z-score)” value is -1.03 in experiment [1]; -1.03 in experiment [2]; -1.03 in experiment [3]; -1.03 in [4]; -0.675 in experiment [5]; -0.195 in experiment [6]. In addition, the “glycan array binding signal (z-score)” value in experiment [7] is -0.127; in [8] it was 0.43; in experiment [9] it was -1.03; in experiment [10], -1.03; in experiment [11], -0.961; in experiment [12], 0.29. The “glycan array binding signal (z-score)” value in [13] is 1.24; in experiment [14], 0.862; in [15], 0.872; in [16] it was 1.64; in [17], 0.741; in [18], 1.57. The results for the “glycan array binding signal (z-score)” value in experiment [19] and in [20] were 1.48 and -0.981, respectively.

B2: DC-SIGN (Homo sapiens), Q9NNX6 (protein)
chain: QVSKVPSSISQEQSRQDAIYQNLTQLKAAVGELSEKSKLQEIYQELTQLKAAVGELPEKSKLQEIYQELTRLKAAVGELPEKSKLQEIYQELTWLKAAVGELPEKSKMQEIYQELTRLKAAVGELPEKSKQQEIYQELTRLKAAVGELPEKSKQQEIYQELTRLKAAVGELPEKSKQQEIYQELTQLKAAVERLCHPCPWEWTFFQGNCYFMSNSQRNWHDSITACKEVGAQLVVIKSAEEQNFLQLQSSRSNRFTWMGLSDLNQEGTWQWVDGSPLLPSFKQYWNRGEPNNVGEEDCAEFSGNGWNDDKCNLAKFWICKKSAASCSRDEEQFLSPAPATPNPPPA
Regarding B2, the “glycan array binding signal (z-score)” value is -1.08 in experiment [1]; -1.23 in experiment [2]; -0.993 in experiment [3]; -0.838 in [4]; -1.03 in [5]; -0.81 in [6]. In addition, the “glycan array binding signal (z-score)” value in experiment [7] was -0.586; in experiment [8], -0.6; in experiment [9], 0.173; in experiment [10], 0.114; in [11], 0.562; in [12], 1.1. For the same molecule, the “glycan array binding signal (z-score)” value in [13] was 2.48; in experiment [14] it was 1.09; in experiment [15], 0.65; in experiment [16] it was 1.4; in experiment [17], 0.355; in experiment [18], 0.388. The “glycan array binding signal (z-score)” value is 0.149 in experiment [19] and -1.29 in experiment [20].
